From paper PMC11995724, “Antibiotic target discovery by integrated phenotypic and activity-based profiling of electrophilic fragments” (Cell chemical biology, 2025)
In all, about 3,200 compounds went through this assay and about 110 (3.4%) showed an effect of 50% or more. The list shows a part of the results.

tested on: T1, V. cholerae SAD30; set-up: species or system S. aureus MSSA476 (TSB) or V. cholerae SAD30 (LB); 384-well bacterial growth screen at 25 uM, OD600 relative to DMSO control; details: relative growth, OD600, LB; 25 µM; inhibitor
T1 construct: SAD30

| Structure (SMILES) | % of control remaining |
| --- | --- |
| CN(CC(=O)Nc1ccccc1Cl)C(=O)CCl [4-D05, 2-chloro-N-{[(2-chlorophenyl)carbamoyl]methyl}-N-methylacetamide] | 105.413% |
| CSc1ccc(C=C(C#N)C(=O)Nc2c(C)cc(C)cc2C)cc1 [8-G15, 2-cyano-3-[4-(methylsulfanyl)phenyl]-N-(2,4,6-trimethylphenyl)prop-2-enamide] | 74.1672% |
| CC(=O)c1ccc(S(=O)(=O)N2CCN(C(=O)CCl)CC2)cc1 [5-P16, 1-[4-(4-acetylbenzenesulfonyl)piperazin-1-yl]-2-chloroethan-1-one] | 98.8547% |
| O=C1C=CC(=O)N1c1ccc(OC(F)(F)F)cc1 [10-J19, 1-[4-(trifluoromethoxy)phenyl]-2,5-dihydro-1H-pyrrole-2,5-dione] | 30.0799% |
| N#CC(=Cc1ccc(F)cc1)C(=O)Nc1cccc2ncccc12 [9-C21, 2-cyano-3-(4-fluorophenyl)-N-(quinolin-5-yl)prop-2-enamide] | 89.9388% |
| N#CC(C(=O)N1CCCCC1)=C1N=C(N)c2ccccc21 [9-A21, 2-(3-amino-1H-isoindol-1-ylidene)-3-oxo-3-(piperidin-1-yl)propanenitrile] | 85.86% |
| CC(=O)NCCc1cc(C(=O)CCl)ccc1F [10-O05, N-{2-[5-(2-chloroacetyl)-2-fluorophenyl]ethyl}acetamide] | 118.138% |
| O=C(CCl)NCCC1CCCC1(F)F (stereo not drawn) [7-P04, 2-chloro-N-[2-(2,2-difluorocyclopentyl)ethyl]acetamide] | 89.8728% |
| C=CC(=O)N1CCC(C(=O)NCc2ncc(N(C)C)cn2)CC1 [3-L03, N-{[5-(dimethylamino)pyrimidin-2-yl]methyl}-1-(prop-2-enoyl)piperidine-4-carboxamide] | 104.793% |
| C=CC(=O)NC(c1ccc(F)cc1)c1ccccn1 (stereo not drawn) [3-N14, N-[(4-fluorophenyl)(pyridin-2-yl)methyl]prop-2-enamide] | 101.617% |
| N#CC(=Cc1csc2ccccc12)C(=O)NCc1ccco1 [9-D16, 3-(1-benzothiophen-3-yl)-2-cyano-N-[(furan-2-yl)methyl]prop-2-enamide] | 79.6057% |
| CC(NC(=O)C(C#N)=Cc1cccc(Cl)c1Cl)c1ccccc1 (stereo not drawn) [9-N04, 2-cyano-3-(2,3-dichlorophenyl)-N-(1-phenylethyl)prop-2-enamide] | 92.3861% |
